Results published in ChEMBL document CHEMBL4888484, “Replenishing the malaria drug discovery pipeline: Screening and hit evaluation of the MMV Hit Generation Library 1 (HGL1) against asexual blood stage Plasmodium falciparum ,using a nano luciferase reporter read-out” (2022).
The campaign covered roughly 150,000 compounds. About 540 (0.36%) showed an effect of 50% or more. The list shows a part of the results.

system: Plasmodium falciparum; experiment: Primary screen in NF54 nanoGlo assay, in single point, at 2uM, 72h; a lower Z score goes with more inhibition; assay type: functional, Erythrocyte; conditions: timepoint 72 hour

Structure (SMILES)	% Inhibition	Z score
CC(C)c1cc(C(=O)N2CCC[C@H](c3nc4ccccc4s3)C2)n(C)n1	-9%	0.87
O=C(CCCc1ccccc1)N1CCO[C@H](c2cccnc2)C1	-4%	0.71
Cc1ccc(CC2CN(C(=O)NCc3noc(C4CC4)n3)C2)cc1	1%	-0.12
COc1ccc2c(c1)-c1onc(C(=O)NC3CCCC3)c1CC2	-8%	1.22
CC(=O)c1ccc(S(=O)(=O)N2CCC(C)(C(=O)NCc3ccc4c(c3)OCO4)CC2)cc1	34%	-0.76
O=C(Cc1noc2ccccc12)N1CC(Oc2nc3c(Cl)cccc3s2)C1	-9%	1.01
OC[C@]12COc3ccccc3[C@H]1CN(Cc1ccc(F)cc1Cl)C2	3%	-0.46
O=C(Nc1ccc(Cl)c(Cl)c1)c1c(-c2ccc(Cl)cc2)cn2ccccc12	5%	-0.58
COc1ccc(NC(=O)Cc2c(C)nc3nc(-c4cccc(C)c4)nn3c2C)c(OC)c1	-2%	0.18
O=C(NCc1ccccc1CN1CCCCC1)c1nn(-c2ccccc2)c(=O)c2ccccc12	-4%	0.67
CN1Cc2cc(-c3cccc(C(=O)O)c3)ccc2NC1=O	-6%	0.77
N#Cc1cc(N2CC(CO)C2)nc2ccc(Cl)cc12	-2%	0.18
COc1ccnc(Oc2cnc3ccccc3c2)n1	-9%	0.96
O=C1CCC2(CCN(Cc3ncon3)CC2)CN1CCc1cccnc1	-25%	2.32
CCOc1cccc(-c2noc(Cn3c(=O)n(-c4cc(C)ccc4C)c(=O)c4ccccc43)n2)c1	-9%	0.97
Cc1ccc(Oc2cc3c(cc2S(=O)(=O)N2CCOCC2)C(=O)Nc2ccc(C)cc2O3)cc1	-11%	1.52
CC(C)=CCNC(=O)N1CCC(CF)CC1	-7%	1.35
CN(Cc1cccc(N(C)C)c1)C(=O)[C@H]1CCc2cn[nH]c2C1	-3%	0.54
c1ccc(-c2nnc(-c3noc(CCc4cscn4)n3)s2)cc1	-5%	0.69
O=C(Cc1cscn1)N[C@@H]1COCC[C@@H]1Oc1cccc(F)c1	2%	-0.21
CC1CCN(S(=O)(=O)N2CCC(C(=O)N3CC[C@H](CCOc4ccccc4)C3)CC2)CC1	-10%	1.86
COc1ncccc1CN(C)Cc1nc(C)c[nH]1	-7%	1.24

Structure (SMILES)	% Inhibition	Z score
Cc1ccc2c(c1C)N(C(=O)c1coc(-c3cccnc3)n1)CCC2	-2%	0.4
O=C(Nc1cc(C(F)(F)F)ccc1O)[C@H]1CCOC1	5%	-1.05
CCc1nc(OC)ccc1NC(=O)[C@@H]1Cc2ccccc2CO1	1%	-0.09
CN(C(=O)NC[C@H]1CN(C2CC2)CCO1)c1ccc(F)cc1	17%	-2.54
CC1(C)CN(C(=O)c2cnc3[nH]c(=O)[nH]c(=O)c3c2)C1(C)C	4%	-0.51
Cc1nn2cnnc2c(O)c1Br	-31%	3.64
COCCN(CCOc1ccccc1F)Cc1cc(Cl)c(OCC(=O)O)c(OC)c1	6%	-1
CCCn1nc(Cn2cncn2)nc1-c1cccc(Cn2cccn2)c1	0%	0.04
COC(C)(C)CC(C)NC1CCCCC1C(N)=O (stereo not given)	-13%	1.87
C=CCO[C@@H](C)C(=O)N1CCN(CC(C)(C)O)CC1	8%	-1.16
O=C(NC[C@H]1CC[C@@H](c2ccccc2)O1)OC1CCC1	-3%	0.44
Cc1c[nH]c(CN(C)C(=O)c2cc(N)ccn2)n1	-3%	0.44
CC(C)c1cc(C(=O)N2CCc3ccncc32)cc(O)n1	-7%	1.13
Cc1sc(C(=O)O)cc1CN1CCOCC1C1CCCO1 (stereo not given)	-8%	0.93
COc1ccc(C[C@@]2(CCC(=O)N3CCC4(C=Cc5ccccc54)CC3)CCC(=O)N2)cc1	1%	-0.26
CC(C)COCC(NC(=O)C1CCC(NC(=O)OC(C)(C)C)C1)c1ccco1 (stereo not given)	-3%	0.37
CN1CCN(C(=O)CN2C(=O)c3cc(Cl)c(Cl)cc3C2=O)CC1	-2%	0.26
CCOc1cccc(C(=O)N[C@H]2C[C@@H](OCC)C2)c1	-7%	0.96
CC(O)C1CN(C(=O)c2ccc3c(c2)CCCCC3=O)CCO1 (stereo not given)	-4%	0.72
Cc1ccc(C(=O)NCCS(=O)(=O)N2CCCC2)n1C(F)F	14%	-2.02
CS(=O)(=O)Cc1ccc(Cl)c(NC(=O)NCCC2CC2)c1	-6%	0.87
COc1ccc(C)cc1N1C(=O)[C@@H]2C[C@H]1CN2C(=O)c1ccc(C(F)(F)F)cc1	-3%	0.34

Structure (SMILES)	% Inhibition	Z score
Cc1cccc2[nH]c(COCc3nc([C@H]4CCOC4)no3)nc12	-19%	2.02
Cc1ccc(F)c(C(=O)N2CCC([C@@H](O)CCc3ccccc3)CC2)c1F	-18%	2.75
CN(C[C@H]1COCCO1)C(=O)c1ccc(-c2ccc(O)c(C(=O)O)c2)cc1	-2%	0.26
O=C(Cc1nc(-c2cccnc2)n[nH]1)Nc1ccc(F)c(F)c1	-15%	2.39
CCn1cnnc1CN(C)C(=O)c1cccc(-c2ccnc(OC)c2C#N)c1	0%	0.08
CC(C)(C)OC(=O)N1CCC2(CC1)OCCC2=O	-10%	0.95
COc1ccc([C@@H]2C=C(c3ccc(Cl)cc3)Nc3ncnn32)cc1OCc1ccccc1	6%	-0.94
COc1ncccc1C(=O)N[C@@H](C)COc1ccc(F)cc1F	-3%	0.23
CCc1[nH]nc(NCc2cccc(OC)n2)c1C	-2%	0.21
CC1(C)CCCC[C@@H]1NC(=O)c1cccn2c(=O)[nH]nc12	-8%	0.97
Cc1cccc(Cn2nc(-c3ccc(C)o3)nc2[C@H]2CCNC2)c1	-20%	1.97
OCCn1nc(C2CC2)nc1CCc1ccc(-c2ccccc2)cc1	-14%	1.98
CC(C)(C)c1nc(CCNC(=O)N[C@@]2(C)CCOC2)cs1	-11%	1.48
Cc1nc(NC(=O)NCCc2cscn2)ccc1Br	-14%	2.26
CCN(C)S(=O)(=O)N(C)CC1(CO)CCC1	-7%	0.63
CCc1cnc([C@H](C)NCCCC#N)s1	-13%	1.61
O=C(COC(=O)c1ccc2c(c1)CCCC2)Nc1ccc2[nH]c(=O)[nH]c2c1	-12%	1.96
COc1ccccc1CNCCNC(=O)c1ccncc1	35%	-1.18
COCC(=O)N1CCC[C@H](n2cnc3ccccc3c2=O)C1	-1%	0.09
Cc1cnc(C(=O)N[C@H]2CCN(c3ccc4nncn4n3)C2)cn1	-5%	0.83
Cc1nc(CN2CCN(Cc3cccnc3)[C@H]3CS(=O)(=O)C[C@H]32)no1	-13%	1.12
O=S(=O)(c1ccc(F)c(Cl)c1)N1CC[C@H](Oc2ccncc2Cl)C1	72%	-13.57

Structure (SMILES)	% Inhibition	Z score
Cc1nnccc1NC(=O)N[C@@H]1COC(C)(C)O[C@@H]1c1ccccc1	-5%	0.74
N#Cc1nccnc1NCc1noc(C2CC2)n1	-3%	0.3
COC(=O)CNC(=O)N1CCC(N2CC3(CCCCC3)[C@H]2c2ccccc2)CC1	-5%	0.85
Cc1c(Cl)cccc1NC(=O)CC1CC2CCC1C2 (stereo not given)	-12%	1.16
c1ccc(C[C@@H]2NCCc3c2[nH]c2ccccc32)cc1	-1%	0.11
CNc1ncccc1C(=O)NC[C@H]1CCN(c2cnn(C)c(=O)c2)C1	5%	-0.6
CCOC(=O)N1CCC(N2C(=O)c3ccc(C(=O)NCc4ccccc4OC)cc3C2=O)CC1	-9%	1.31
CC(C)[C@H](NCc1cnn(C)c1)c1ccc2c(c1)CCO2	-3%	0.46
CC1CCN(Cc2ccc(C(=O)NC[C@H]3CN(C)C(=O)CO3)o2)CC1	-2%	0.4
Cn1nnc2c1CCC(NC(=O)NC1COc3c1ccc(Cl)c3Cl)C2 (stereo not given)	-6%	1.07
Cc1nc2c(c(=O)n1C)CCN(C(=O)c1cccc3c1NCCC3)CC2	1%	-0.15
C[C@](O)(CNC(=O)c1ccc(-c2ccsc2)cc1)C1CC1	-10%	1.73
O=C(Nc1ccc(Cl)cc1)c1cnn2c3c(cnc12)CCCCC3	-7%	1.02
N#CC1(C(=O)N2CCN(S(=O)(=O)c3ccc4ccccc4c3)CC2)CCCCC1	-9%	1.47
COc1cc(C)c(-c2nc3ccccc3c(=O)n2Cc2ccccc2)cc1C	0%	0.05
CCc1ccccc1S(=O)(=O)Cc1ccc(C(=O)N2CCN(c3ccccc3OC)CC2)o1	-18%	2.3
Cc1noc(C)c1CN(C)CC1=CC[C@H]2C[C@@H]1C2(C)C	-6%	0.94
COC(=O)CN(CC#N)Cc1cccc(Cl)c1F	-9%	0.97
C[C@H](O)c1cc2n(n1)CCN(Cc1cnn(-c3ccc4ccccc4c3)c1)C2	-14%	1.93
